We go through 24 compounds from article PMC11243598, “Inhibition of Monoamine Oxidases by Pyridazinobenzylpiperidine Derivatives” (Molecules, 2024).

In this test the target is T1, MAO-B (Homo sapiens, UniProt P27338).
T1 sequence (P27338 1-520): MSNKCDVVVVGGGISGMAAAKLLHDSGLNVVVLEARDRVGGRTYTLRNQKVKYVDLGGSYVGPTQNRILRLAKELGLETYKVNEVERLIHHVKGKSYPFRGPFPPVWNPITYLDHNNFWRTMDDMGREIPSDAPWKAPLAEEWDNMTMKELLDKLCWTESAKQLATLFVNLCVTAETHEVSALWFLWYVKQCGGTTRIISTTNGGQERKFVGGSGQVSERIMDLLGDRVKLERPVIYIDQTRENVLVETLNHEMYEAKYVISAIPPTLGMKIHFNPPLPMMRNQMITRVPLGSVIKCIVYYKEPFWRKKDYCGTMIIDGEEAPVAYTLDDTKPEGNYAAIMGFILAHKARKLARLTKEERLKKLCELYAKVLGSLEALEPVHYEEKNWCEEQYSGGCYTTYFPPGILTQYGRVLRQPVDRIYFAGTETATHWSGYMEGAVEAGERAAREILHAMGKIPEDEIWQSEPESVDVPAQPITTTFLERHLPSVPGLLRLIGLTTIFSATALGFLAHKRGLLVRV
To be noted: IC50 of MAO-A/IC50 of MAO-B.
Consider `O=C(Cn1nc(N2CCC(Cc3ccccc3)CC2)ccc1=O)NN=Cc1ccccc1` [Compound S1], for which the “SI (selectivity index)” value is reported as 2.34. The value for `O=C(Cn1nc(N2CCC(Cc3ccccc3)CC2)ccc1=O)NN=Cc1ccc(Br)cc1` [Compound S2] was 1.02; that for `O=C(Cn1nc(N2CCC(Cc3ccccc3)CC2)ccc1=O)NN=Cc1ccccc1Br` [Compound S3, N′-2-bromobenzylidene-2-(3-(4-benzylpiperidin-1-yl)-6-oxopyridazin-1(6H)-yl)acetohydrazide] was 0.87; that for `O=C(Cn1nc(N2CCC(Cc3ccccc3)CC2)ccc1=O)NN=Cc1cccc(Br)c1` [Compound S4, N′-3-bromobenzylidene-2-(3-(4-benzylpiperidin-1-yl)-6-oxopyridazin-1(6H)-yl)acetohydrazide] was 4.37. The value for `O=C(Cn1nc(N2CCC(Cc3ccccc3)CC2)ccc1=O)NN=Cc1cccc(Cl)c1` [Compound S5, N′-3-chlorobenzylidene-2-(3-(4-benzylpiperidin-1-yl)-6-oxopyridazin-1(6H)-yl)acetohydrazide] was 19.04; that for `O=C(Cn1nc(N2CCC(Cc3ccccc3)CC2)ccc1=O)NN=Cc1ccc(Cl)cc1` [Compound S6] was 1.44; that for `O=C(Cn1nc(N2CCC(Cc3ccccc3)CC2)ccc1=O)NN=Cc1cccc(F)c1` [Compound S7, N′-3-fluorobenzylidene-2-(3-(4-benzylpiperidin-1-yl)-6-oxopyridazin-1(6H)-yl)acetohydrazide] was 2.77. The value for `O=C(Cn1nc(N2CCC(Cc3ccccc3)CC2)ccc1=O)NN=Cc1ccc(F)cc1` [Compound S8] was 1.49. For the compound `Cc1ccccc1C=NNC(=O)Cn1nc(N2CCC(Cc3ccccc3)CC2)ccc1=O` [Compound S9, N′-2-methylbenzylidene-2-(3-(4-benzylpiperidin-1-yl)-6-oxopyridazin-1(6H)-yl)acetohydrazide], the “SI (selectivity index)” value is given as 0.62. The value for `Cc1cccc(C=NNC(=O)Cn2nc(N3CCC(Cc4ccccc4)CC3)ccc2=O)c1` [Compound S10, N′-3-methylbenzylidene-2-(3-(4-benzylpiperidin-1-yl)-6-oxopyridazin-1(6H)-yl)acetohydrazide] was 1.28; that for `COc1cccc(C=NNC(=O)Cn2nc(N3CCC(Cc4ccccc4)CC3)ccc2=O)c1` [Compound S11] was 2.96. As for `COc1ccc(C=NNC(=O)Cn2nc(N3CCC(Cc4ccccc4)CC3)ccc2=O)cc1` [Compound S12], the “SI (selectivity index)” value was determined as 0.72. Regarding `CN(C)c1ccc(C=NNC(=O)Cn2nc(N3CCC(Cc4ccccc4)CC3)ccc2=O)cc1` [Compound S13], the “SI (selectivity index)” value came out at 0.87. `O=C(Cn1nc(N2CCC(Cc3ccccc3)CC2)ccc1=O)NN=Cc1ccc([N+](=O)[O-])cc1` [Compound S14]: the “SI (selectivity index)” value is given as 6.67. The value for `CCc1ccc(C=NNC(=O)Cn2nc(N3CCC(Cc4ccccc4)CC3)ccc2=O)cc1` [Compound S15, N′-4-ethylbenzylidene-2-(3-(4-benzylpiperidin-1-yl)-6-oxopyridazin-1(6H)-yl)acetohydrazide] was 0.69.

In the case of `N#Cc1ccccc1C=NNC(=O)Cn1nc(N2CCC(Cc3ccccc3)CC2)ccc1=O` [Compound S16, N′-2-cyanobenzylidene-2-(3-(4-benzylpiperidin-1-yl)-6-oxopyridazin-1(6H)-yl)acetohydrazide], the “SI (selectivity index)” value came to 6.28. The value for `N#Cc1cccc(C=NNC(=O)Cn2nc(N3CCC(Cc4ccccc4)CC3)ccc2=O)c1` [Compound S17, N′-3-cyanobenzylidene-2-(3-(4-benzylpiperidin-1-yl)-6-oxopyridazin-1(6H)-yl)acetohydrazide] was 2.03. The value for `N#Cc1ccc(C=NNC(=O)Cn2nc(N3CCC(Cc4ccccc4)CC3)ccc2=O)cc1` [Compound S18, N′-4-cyanobenzylidene-2-(3-(4-benzylpiperidin-1-yl)-6-oxopyridazin-1(6H)-yl)acetohydrazide] was 2.05; that for `COc1ccccc1C=NNC(=O)Cn1nc(N2CCC(Cc3ccccc3)CC2)ccc1=O` [Compound S19, N′-2-methoxybenzylidene-2-(3-(4-benzylpiperidin-1-yl)-6-oxopyridazin-1(6H)-yl)acetohydrazide] was 4.66; that for `COc1cc(C=NNC(=O)Cn2nc(N3CCC(Cc4ccccc4)CC3)ccc2=O)cc(OC)c1` [Compound S20, N′-3,5-dimethoxybenzylidene-2-(3-(4-benzylpiperidin-1-yl)-6-oxopyridazin-1(6H)-yl)acetohydrazide] was 5.23. In the case of `COc1cc(OC)c(C=NNC(=O)Cn2nc(N3CCC(Cc4ccccc4)CC3)ccc2=O)c(OC)c1` [Compound S21, N′-2,4,6-trimethoxybenzylidene-2-(3-(4-benzylpiperidin-1-yl)-6-oxopyridazin-1(6H)-yl)acetohydrazide], the “SI (selectivity index)” value was 1.22. The value for `COc1cccc(C=NNC(=O)Cn2nc(N3CCC(Cc4ccccc4)CC3)ccc2=O)c1OC` [Compound S22, N′-2,3-dimethoxybenzylidene-2-(3-(4-benzylpiperidin-1-yl)-6-oxopyridazin-1(6H)-yl)acetohydrazide] was 0.75. `COc1cc(C=NNC(=O)Cn2nc(N3CCC(Cc4ccccc4)CC3)ccc2=O)cc(OC)c1OC` [Compound S23, N′-3,4,5-trimethoxybenzylidene-2-(3-(4-benzylpiperidin-1-yl)-6-oxopyridazin-1(6H)-yl)acetohydrazide]: the “SI (selectivity index)” value stood at 2.59. The value for `COc1ccc(C=NNC(=O)Cn2nc(N3CCC(Cc4ccccc4)CC3)ccc2=O)c(OC)c1` [Compound S24, N′-2,4-dimethoxybenzylidene-2-(3-(4-benzylpiperidin-1-yl)-6-oxopyridazin-1(6H)-yl)acetohydrazide] was 0.39.
